Measurements published in PubChem BioAssay AID686971 (National Center for Advancing Translational Sciences (NCATS), 2013).
In all, about 360,000 compounds went through this assay and about 7,500 (2.1%) were called active. Inconclusive means that the source gave no clear call. Such entries were picked first, then a sample of the others. Calls come from the whole dose curve; as a rule, active = well fitted cell-killing curve with a large enough effect; inconclusive = small, poorly fitted or top-dose-only effect, or effect the other way, or another doubt; inactive = no such curve, though single readings can be large or run the other way. No potency is given beside an inconclusive call; the fits are too rough.

assay: qHTS for induction of synthetic lethality in tumor cells producing 2HG: qHTS for the HT-1080-IDH1KD cell line; settings: HT-1080 IDH1 knockdown viability, ATP luminescence, 48 h; activity, negative = toxicity: at 46.1 µM (top of the series) unless noted;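 for activity, negative = toxicity: 0% = DMSO wells and -100% = cell-free medium wells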
How it was run: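 In this qHTS, HT-1080 cells depleted of IDH1 are exposed for 48 h at 37 °C to compound titrations. Toxicity is scored from CellTiter-Glo luminescence, with DMSO as full viability and medium alone as none.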
Potency is the fitted concentration of half-maximal effect; tags give direction and shape of the fitted curve.

SMILES	Potency	activity, negative = toxicity
Cc1cc(C(=O)CSc2nnc(-c3ccco3)o2)c(C)n1-c1ccc2c(c1)OCCO2	inactive	–
O=C(Cc1cccs1)NCCS(=O)(=O)N1CCN(c2ccccc2F)CC1	inconclusive [cytotoxic, single point]	–
CC1(C(=O)Nc2ccc3c(c2)OCO3)Cc2c(-c3ccccc3)ccnc2O1 (configuration not stated)	inconclusive [cytotoxic, single point]	–
CC(=O)Nc1ccc(NC(=O)CSc2nnnn2-c2ccc(F)cc2)cc1	inactive	–
C=CCn1c(CCc2cc(C(C)(C)C)c(O)c(C(C)(C)C)c2)n[nH]c1=S	inconclusive [cytotoxic, single point]	–
O=C(Nc1ccc2c(c1)CN(Cc1ccc(CO)o1)CC2)c1ccc(C(F)(F)F)cc1	inconclusive [cytotoxic, partial curve]	–
CC1(C2CC2)NC(=O)N(CC(=O)Nc2ccccc2C#N)C1=O (configuration not stated)	inactive	–
COc1ccccc1NC(=O)N(Cc1ccco1)Cc1cc2cc(C)cc(C)c2[nH]c1=O	inconclusive [cytotoxic, single point]	–
Oc1cccc(-c2nnc(-c3cccc(O)c3)nn2)c1	inactive	–
COc1ccc(CNC(=S)Nc2ccc3nc(N4CCN(C)CC4)cc(C)c3c2)cc1	inconclusive [cytotoxic, single point]	–
Cn1cncc1C#Cc1c(C=O)[nH]c2ccccc12	inconclusive [cytotoxic, single point]	–
O=C(CNC(=O)c1sc2ccccc2c1Cl)Nc1ccccc1F	inactive	–
Cc1[nH]c(=O)c(C(=O)/C=C/c2ccccc2)c2c1CCCC2	active: 3.98 µM	–
CCN(CC)c1ccc(N=Cc2cc(Br)ccc2O)cc1	inconclusive [cytotoxic, single point]	–
CCCCCCCCOC(=O)c1cc([N+](=O)[O-])c(Sc2ncnc3nc[nH]c23)c([N+](=O)[O-])c1	active: 13 µM	–
CCOC(=O)Cn1c(=NC(=O)c2sc3ccccc3c2Cl)sc2cc(S(N)(=O)=O)ccc21	inconclusive [cytotoxic, partial curve]	–
COc1ccc(NC(=O)c2cc(-c3cc(Cl)ccc3C)n[nH]2)c(OC)c1	inconclusive [cytotoxic, single point]	–
COc1ccc(C2CC(c3cccs3)=NN2C(=O)COC(=O)C2CCCCC2)cc1OC (configuration not stated)	inactive	–
CC(C)C(=O)N1CCN(c2ccc(NC(=O)c3ccc4c(c3)OCCO4)cc2)CC1	inconclusive [cytotoxic, single point]	–
C[C@@H]1C[C@H]2[C@@H]3C[C@H](F)C4=CC(=O)C=C[C@]4(C)[C@@]3(Cl)[C@@H](O)C[C@]2(C)[C@H]1C(=O)COC(=O)C(C)(C)C	inconclusive [rising, full curve, poor fit]	–
Cc1occc(=O)c1OC(=O)Nc1ccc(Cl)c(Cl)c1	inconclusive [cytotoxic, single point]	–
COc1ccc(OCCN2CCC(C(=O)NC(c3ccsc3)c3ccccc3C)CC2)cc1 (configuration not stated)	inconclusive [cytotoxic, single point]	–
COC1=CC(=O)c2c(ccc3ncnc(N)c23)C1=O	active: 2.91 µM	–
Cc1cc(NC(=O)CN(C)CCOc2ccccc2)ccc1Br	inconclusive [cytotoxic, single point]	–

SMILES	Potency	activity, negative = toxicity
COc1cc(/C=C2\SC(=O)N(CC(=O)Nc3ccccc3F)C2=O)cc(Cl)c1O	–	inconclusive: -32.9% [cytotoxic]
Cn1cc(/C=N/NC(N)=S)c2ccccc21	inactive	–
CCCNC(=O)c1onc(CSc2ccc(Cl)cc2)c1C(=O)NCCC(C)C	inactive	–
COc1ccc(C(=O)/C=C/c2ccccc2C(F)(F)F)cc1	inconclusive [cytotoxic, single point]	–
COc1cccc(/C=N/NC(=O)CCc2c(C)n[nH]c2C)c1O	inconclusive [cytotoxic, single point]	–
COCCNC(=S)N1CCC(NC(=O)Nc2ccc(C)cc2)CC1	inactive	–
O=C1OC[C@@H]2CCCN2C(=O)[C@@H](CC(=O)N(CCO)Cc2ccccc2)C/C=C\CC[C@H]1Cc1ccc(F)cc1	inactive	–
COc1ccc(C(=O)C2CCCN(Cc3cccn3-c3ccccn3)C2)c(OC)c1 (configuration not stated)	active: 14.6 µM	–
CC1C(=O)Nc2ccccc2N1C(=O)C1CC1 (configuration not stated)	inactive	–
O=C(N/N=C/C=C/c1ccccc1)c1ccccn1	inconclusive [rising, single point]	–
Cn1cccc1/C=C1\SC(=S)N(Nc2ccccc2)C1=O	inconclusive [cytotoxic, single point]	–
N#CC1=C(N)N(c2ccccc2)C(c2ccco2)C1(C#N)C#N (configuration not stated)	inconclusive [cytotoxic, single point]	–
CNC(=S)N/N=C1\C(=O)c2cccc3cccc1c23	inconclusive [cytotoxic, partial curve]	–
O=S(=O)(NCCSc1ccccc1)c1cccs1	inactive	–
CC(=O)/C=C1/C(=O)Nc2ccccc21	inconclusive [cytotoxic, single point]	–
CCOC(=O)c1ccc(NC(=S)NC2CC(C)(C)NC(C)(C)C2)cc1	inconclusive [cytotoxic, single point]	–
CC(=O)N1c2ccc(S(=O)(=O)NCCC(=O)NC3CCC(C)CC3)cc2CC1C (configuration not stated)	inactive	–
CCCCC(=O)NC(c1cccs1)c1cc(Cl)c2cccnc2c1O (configuration not stated)	inconclusive [cytotoxic, partial curve]	–
Cc1ccc(C(=O)CSC2=C(C#N)C(c3ccco3)C3=C(CC(C)(C)CC3=O)N2)cc1 (configuration not stated)	inconclusive [cytotoxic, single point]	–
CCN(CC1COc2ccccc2O1)C(=S)Nc1ccc(F)cc1 (configuration not stated)	inactive	–
COc1ccccc1N(CC(=O)Nc1ccc(F)c(F)c1)S(C)(=O)=O	inactive	–
C/C(=N\NC(=O)C(N)=O)c1ccc(NC(=O)c2cccs2)cc1	inactive	–
Cc1cc(=O)[nH]c(/N=C(\N)Nc2cccc3ccccc23)n1	inconclusive [cytotoxic, single point]	–
CC(=O)NCCNc1nc(NCC2CC2)nc2cc(-c3ccccc3)sc12	inconclusive [cytotoxic, single point]	–

SMILES	Potency	activity, negative = toxicity
C=CCn1c(SCc2nc3cc(C(F)(F)F)ccc3c(=O)[nH]2)nc2sc(CC)cc2c1=O	inactive	–
CC(=O)N/C(=C\c1ccccc1)C(=O)OCc1ccccc1	inactive	–
O=C(c1[nH]c(C(F)(F)F)nc1-c1ccccc1)N1CCN(c2ccccn2)CC1	active: 23.1 µM	–
Cc1cc(=O)oc2cc(O)cc(OCc3ccccc3)c12	inactive	–
Clc1ccc2c(c1)C(N1CCNCC1)Cc1ccccc1S2 (configuration not stated)	active: 18.4 µM	–
C[C@@H]1CN([C@H](C)CO)S(=O)(=O)c2ccc(C#Cc3ccccc3F)cc2O[C@H]1CN(C)C(=O)c1ccc2c(c1)OCO2	inconclusive [cytotoxic, single point]	–
CCOc1cc(CNCc2cccs2)cc(Br)c1OCC	inconclusive [cytotoxic, single point]	–
CCOC(=O)c1cc(CC)sc1/N=C/c1c(O)ccc2ccccc12	active: 18.4 µM	–
O=C(Cn1ccc(C(F)(F)F)n1)N/N=C/c1ccc(N2CCOCC2)cc1	inconclusive [cytotoxic, single point]	–
CN(C)c1ccc(/C=C/c2nc3ccccc3c(=O)[nH]2)cc1	inconclusive [cytotoxic, partial curve]	–
COc1ccc(/C=N/NC(=O)c2ccccc2OC)cc1COc1ccccc1[N+](=O)[O-]	inconclusive [cytotoxic, single point]	–
CC1CCc2sc(C(=O)OCC(=O)NCc3ccccc3)cc2C1 (configuration not stated)	inconclusive [cytotoxic, single point]	–
COC(=O)c1ccc(NC(=O)COc2ccc(S(=O)(=O)NC(C)C)cc2)cc1	inconclusive [cytotoxic, single point]	–
Cc1[nH]c2ccccc2c1-c1nc2ccccc2[nH]1	inconclusive [cytotoxic, single point]	–
COc1ccc(N2CCN(C(=O)c3ccc(S(=O)(=O)N4CCOCC4)cc3)CC2)cc1	inactive	–
COc1ccc(N(Cc2cc3ccccc3[nH]c2=O)S(=O)(=O)c2ccccc2)cc1	inconclusive [cytotoxic, single point]	–
COc1ccccc1Nc1cc2cc(Br)ccc2c(=O)[nH]1	–	inconclusive: -23.1% [cytotoxic]
OCCN1CCN(c2nc(-c3ccccc3)c3cc(Cl)ccc3n2)CC1	inconclusive [cytotoxic, single point]	–
CC(NC(=S)NC1CCCCC1)c1ccc(C(C)(C)C)cc1 (configuration not stated)	active: 23.1 µM	–
COc1cccc(C2NC(c3cccc(OC)c3O)C(C)C(=O)C2C)c1O (configuration not stated)	inconclusive [cytotoxic, single point]	–
O=C(NCc1ccc(F)cc1)C(=O)Nc1nc(C23CC4CC(CC(C4)C2)C3)cs1	inconclusive [cytotoxic, single point]	–
Cc1cccc(Nc2nc(N)c([N+](=O)[O-])c(NCc3ccco3)n2)c1	inconclusive [cytotoxic, single point]	–
Cc1cccc(NC(=O)C2(C)CC3c4ccccc4C2c2ccccc23)c1C (configuration not stated)	inactive	–
CCOC(=O)NC1CCc2cc(OC)c(OC)c(OC)c2-c2ccc(SC)c(=O)cc21 (configuration not stated)	active: 0.103 µM	–
